Patent publication US20250129160A1 (Amgen, published 2025)
Ends that are not written are not given here.

B1: CCR8 TCE1 scFab × I2E × scFc (bispecific antibody)
chain: EVQLVESGGGLVKPGGSLRLSCAASGFTFSNARMGWVRQAPGKGLEWVGRIKSKTEGGTRDYAAPVKGRFTISRDDSKNTLYLQMNSLKTEDTAVYYCTSYSGVWGQGTMVTVSSASTKGPSVFPLAPSSKSTSGGTAALGCLVKDYFPEPVTVSWNSGALTSGVHTFPAVLQSSGLYSLSSVVTVPSSSLGTQTYICNVNHKPSNTKVDKKVEPKSCGGGGQGGGGQGGGGQGGGGQGGGGQGGGGQGGGGQGGGGQEIVMTQSPDSLAVSLGERATINCKSSQSVLYSSNNKNYLAWYHQKPGQSPKLLISWASTRESGVPDRFSGSGSGTDFTLTINSLQAEDVAVYYCQQYYSIPITFGGGTKVEIKRTVAAPSVFIFPPSDEQLKSGTASVVCLLNNFYPREAKVQWKVDNALQSGNSQESVTEQDSKDSTYSLSSTLTLSKADYEKHKVYACEVTHQGLSSPVTKSFNRGECSGGGGQEVQLVESGGGLVQPGGSLKLSCAASGFTFNKYAINWVRQAPGKGLEWVARIRSKYNNYATYYADAVKDRFTISRDDSKNTVYLQMNNLKTEDTAVYYCARAGNFGSSYISYWAYWGQGTLVTVSSGGGGQGGGGQGGGGQQTVVTQEPSLTVSPGGTVTIT[about 80 residues not given here]FGSGTKLTVLGGGGCPPCPAPELLGGPSVFLFPPKPKDTLMISRTPEVTCVVVDVSHEEPEVKFNWYVDGVEVHNAKTKPCEEQYGSTYRCVSVLTVLHQDWLNGKEYKCKVSNKALPAPIEKTISKAKGQPREPQVYTLPPSREEMTKNQVSLTCLVKGFYPSDIAVEWESNGQPENNYKTTPPVLDSDGSFFLYSKLTVDKSRWQQGNVFSCSVMHEALHNHYTQKSLSLSPGKGGGGQGGGGQGGGGQGGGGQGGGGQGGGGQCPPCPAPELLGGPSVFLFPPKPKDTLMISRTPEVTCVVVDVSHEEPEVKFNWYVDGVEVHNAKTKPCEEQYGSTYRCVSVLTVLHQDWLNGKEYKCKVSNKALPAPIEKTISKAKGQPREPQVYTLPPSREEMTKNQVSLTCLVKGFYPSDIAVEWESNGQPENNYKTTPPVLDSDGSFFLYSKLTVDKSRWQQGNVFSCSVMHEALHNHYTQKSLSLSPGK
notes: single chain; also called TCE1 scFab (CCR8) x scFv (CD3) x scFc
B2: CCR8 TCE2 scFab × I2E × scFc (bispecific antibody)
chain: QVQLVESGGGVVQPGRSLRLSCAASGFTFSNYGMHWVRQAPGKGLEWVAVISYDGSNKFYADSVKGRFTISRDNSKKTLYLQMSSLRVEDTAVYYCARAGGIGRFDYWGQGTLVTVSSASTKGPSVFPLAPSSKSTSGGTAALGCLVKDYFPEPVTVSWNSGALTSGVHTFPAVLQSSGLYSLSSVVTVPSSSLGTQTYICNVNHKPSNTKVDKKVEPKSCGGGGQGGGGQGGGGQGGGGQGGGGQGGGGQGGGGQGGGGQDFVMTQTPLSLSVTPGQPASISCKYSQSLLHSDGKTYLFWYLQKPGQPPHLLIYEVSNRFSGVPDRFSGSGSGTDFTLKISRVEAEDVGLYYCMQTLKLPLTFGGGTKVEINRTVAAPSVFIFPPSDEQLKSGTASVVCLLNNFYPREAKVQWKVDNALQSGNSQESVTEQDSKDSTYSLSSTLTLSKADYEKHKVYACEVTHQGLSSPVTKSFNRGECSGGGGQEVQLVESGGGLVQPGGSLKLSCAASGFTFNKYAINWVRQAPGKGLEWVARIRSKYNNYATYYADAVKDRFTISRDDSKNTVYLQMNNLKTEDTAVYYCARAGNFGSSYISYWAYWGQGTLVTVSSGGGGQGGGGQGGGGQQTVVTQEPSLTVSPGGTVTIT[about 80 residues not given here]FGSGTKLTVLGGGGCPPCPAPELLGGPSVFLFPPKPKDTLMISRTPEVTCVVVDVSHEEPEVKFNWYVDGVEVHNAKTKPCEEQYGSTYRCVSVLTVLHQDWLNGKEYKCKVSNKALPAPIEKTISKAKGQPREPQVYTLPPSREEMTKNQVSLTCLVKGFYPSDIAVEWESNGQPENNYKTTPPVLDSDGSFFLYSKLTVDKSRWQQGNVFSCSVMHEALHNHYTQKSLSLSPGKGGGGQGGGGQGGGGQGGGGQGGGGQGGGGQCPPCPAPELLGGPSVFLFPPKPKDTLMISRTPEVTCVVVDVSHEEPEVKFNWYVDGVEVHNAKTKPCEEQYGSTYRCVSVLTVLHQDWLNGKEYKCKVSNKALPAPIEKTISKAKGQPREPQVYTLPPSREEMTKNQVSLTCLVKGFYPSDIAVEWESNGQPENNYKTTPPVLDSDGSFFLYSKLTVDKSRWQQGNVFSCSVMHEALHNHYTQKSLSLSPGK
notes: single chain; also called TCE2 scFab (CCR8) x scFv (CD3) x scFc

Legend:
human CCR8 [1] = target: T1, human CCR8 (human, UniProt P51685 1-355); experiment: flow cytometry, HuT 78 CD3E-knockout cells, 100 nM TCE after 200 nM CCL1 (competitor)
T1 construct: on transfected CHO cells or native on HuT 78 / HUT-78 cells; also called hu CCR8

human CCR8 [2] = target: T1, human CCR8; experiment: flow cytometry, HuT 78 CD3E-knockout cells, competitor CCL1 200 nM
[3] = target: T2, cynomolgus monkey CCR8 (Chinese origin) (cynomolgus monkey, UniProt O97665 1-356 (rhesus entry)); experiment: cyno Kd divided by human Kd
T2 construct: on transfected CHO cells; also called cyno CCR8; Cy CCR8

human CD3 = target: T3, human CD3 (human, UniProt P07766); experiment: flow cytometry on HPB-all
Chain of human CD3 (P07766 23-207): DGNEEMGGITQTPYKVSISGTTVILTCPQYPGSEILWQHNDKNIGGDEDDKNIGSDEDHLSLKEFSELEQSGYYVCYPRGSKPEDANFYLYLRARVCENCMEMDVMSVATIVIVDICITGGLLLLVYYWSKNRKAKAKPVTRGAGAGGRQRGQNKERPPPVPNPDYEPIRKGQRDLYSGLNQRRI
T3 construct: whole, on cells; also called CD3e

[4] = target: T2, cynomolgus monkey CCR8 (Chinese origin); experiment: cell-based or functional assay
human CCR8 [5] = target: T1, human CCR8; experiment: cell-based or functional assay
[6] = target: T2, cynomolgus monkey CCR8 (Chinese origin); experiment: flow cytometry on Cy CCR8+ CHO
cynomolgus CD3 = target: T4, cynomolgus CD3 (cynomolgus, UniProt Q95LI5 22-198); experiment: flow cytometry on LnPx4119
Chain of cynomolgus CD3 (Q95LI5 22-198): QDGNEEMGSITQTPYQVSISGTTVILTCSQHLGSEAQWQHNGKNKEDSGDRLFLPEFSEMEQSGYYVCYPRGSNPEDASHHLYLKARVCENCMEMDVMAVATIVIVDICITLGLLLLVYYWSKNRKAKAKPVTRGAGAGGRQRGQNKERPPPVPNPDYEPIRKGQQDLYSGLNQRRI
T4 construct: whole, on cells; also called cyno CD3

[7] = target: T5, CCR8 P_1-12 peptide construct (human, not fully specified (C-terminus); also: BAP biotinylated in vivo, fused construct pieces' sequences not given here); experiment: flow cytometry, peptide construct on streptavidin beads, 5 µg/mL
T5 construct: coupled to streptavidin beads; not shown: G4S linker, V5 tag, G4S linker, chicken albumin, then FLAG tag, BAP and H3G each via SG linker
T5 chain: MDYTLDLSVTTV

[8] = target: T6, CCR8 P_13-24 peptide construct (human, not fully specified (C-terminus); also: BAP biotinylated in vivo, fused construct pieces' sequences not given here); experiment: as above
T6 construct: coupled to streptavidin beads; not shown: G4S linker, V5 tag, G4S linker, chicken albumin, then FLAG tag, BAP and H3G each via SG linker
T6 chain: TDYYYPDIFSSP

[9] = target: T7, CCR8 P_19-30 peptide construct (human, not fully specified (C-terminus); also: BAP biotinylated in vivo, fused construct pieces' sequences not given here); experiment: as above
T7 construct: coupled to streptavidin beads; not shown: G4S linker, V5 tag, G4S linker, chicken albumin, then FLAG tag, BAP and H3G each via SG linker
T7 chain: DIFSSPCDAELI

[10] = target: T8, CCR8 P_25-35 peptide construct (human, not fully specified (C-terminus); also: BAP biotinylated in vivo, fused construct pieces' sequences not given here); experiment: as above
T8 construct: coupled to streptavidin beads; not shown: G4S linker, V5 tag, G4S linker, chicken albumin, then FLAG tag, BAP and H3G each via SG linker
T8 chain: CDAELIQTNGK

[11] = target: T9, CCR8 P_1-35 peptide construct (full-length N-terminal peptide of human CCR8) (human, BAP biotinylated in vivo); experiment: as above
T9 construct: from HEK 293 supernatant, coupled to streptavidin beads; not shown: G4S linker, V5 tag, G4S linker, chicken albumin, then FLAG tag, BAP and H3G each via SG linker

human CCR8 [12] = target: T1, human CCR8; experiment: flow cytometry, HuT 78 CD3E-knockout cells, 100 nM TCE, no CCL1
human CCR8 [13] = target: T1, human CCR8; experiment: flow cytometry, CHO cells expressing human CCR8
[14] = target: T10, cynomolgus monkey CCR8 (T4R), Mauritian origin (cynomolgus monkey, UniProt O97665 1-356 (rhesus entry)); experiment: flow cytometry on Cy CCR8 (T4R)+ CHO
T10 construct: also called cy CCR8 (T4R); Cy CCR8 (T4R)
T10 chain: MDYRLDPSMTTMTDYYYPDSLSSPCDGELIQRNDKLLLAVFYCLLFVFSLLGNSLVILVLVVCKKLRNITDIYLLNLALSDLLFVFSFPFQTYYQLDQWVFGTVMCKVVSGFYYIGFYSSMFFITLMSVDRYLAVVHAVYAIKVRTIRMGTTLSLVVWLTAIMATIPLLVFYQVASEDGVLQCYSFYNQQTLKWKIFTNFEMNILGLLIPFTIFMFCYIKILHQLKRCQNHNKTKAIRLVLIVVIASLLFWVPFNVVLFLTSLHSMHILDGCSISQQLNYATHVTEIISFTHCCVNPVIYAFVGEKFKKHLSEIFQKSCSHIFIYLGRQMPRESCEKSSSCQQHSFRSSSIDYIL

human CCR8 [15] = target: T1, human CCR8; experiment: flow cytometry on HUT-78 (CCR8+/CD3-)
[16] = target: T2, cynomolgus monkey CCR8 (Chinese origin); experiment: flow cytometry, CHO cells expressing cynomolgus CCR8
[17] = target: T10, cynomolgus monkey CCR8 (T4R), Mauritian …; experiment: cyno (T4R) Kd divided by human Kd
human CCR8 [18] = target: T1, human CCR8; experiment: flow cytometry on hu CCR8+ CHO
human CCR8 isoform A27G = human CCR8 isoform A27G (human, UniProt P51685 1-355); experiment: cell-based or functional assay
human CCR8 [19] = target: T1, human CCR8; experiment: cell-based or functional assay; remark: listed apart in the source
[20] = target: T6, CCR8 P_13-24 peptide construct; experiment: flow cytometry, peptide construct on streptavidin beads
[21] = target: T10, cynomolgus monkey CCR8 (T4R), Mauritian …; experiment: flow cytometry, CHO cells expressing cynomolgus CCR8 (T4R)
[22] = target: T11, CCR8 P_7-18 peptide construct (human, not fully specified (C-terminus); also: BAP biotinylated in vivo, fused construct pieces' sequences not given here); experiment: flow cytometry, peptide construct on streptavidin beads, 5 µg/mL
T11 construct: coupled to streptavidin beads; not shown: G4S linker, V5 tag, G4S linker, chicken albumin, then FLAG tag, BAP and H3G each via SG linker
T11 chain: LSVTTVTDYYYP

Binder	Average Median PE, CCL1-treated (+CCL1) (human CCR8 [1]) [median PE]	Ratio Average Median PE (+CCL1)/Average (-CCL1) (human CCR8 [2]) [ratio]	Affinity gap Kdcy/Kdhu CCR8 [3] [ratio]	EC50, 48-hour FACS based cytotoxicity assay, HUT-78 (CD3+) (human CCR8 [5]) [pM]	Median Fluorescence of Sample/Median Fluorescence of Negative Control [7] [ratio]	Median Fluorescence of Sample/Median Fluorescence of Negative Control [8] [ratio]	Median Fluorescence of Sample/Median Fluorescence of Negative Control [9] [ratio]	Median Fluorescence of Sample/Median Fluorescence of Negative Control [10] [ratio]	Median Fluorescence of Sample/Median Fluorescence of Negative Control [11] [ratio]	Average Median PE, CCL1-untreated (-CCL1) (human CCR8 [12]) [median PE]	Kd (human CCR8 [13]) [pM]	Kd [16] [pM]	Affinity gap Kdcy (T4R)/Kdhu CCR8 [17] [ratio]	A27G EC50, 48-hour FACS based cytotoxicity assay (human CCR8 isoform A27G) [pM]	#A2 EC50, 48-hour FACS based cytotoxicity assay (human CCR8 [19]) [pM]	Kd [21] [pM]	further results
B1	27000	1	1.8	46.9	414	1.1	1.1	1.1	471	27200	880	1580	157	15.7	14.4	138000	mean BL2 of the sample/mean BL2 of the secondary antibody control (human CD3): 298 ratio; #G4 EC50, 48-hour FACS based cytotoxicity assay [4]: 3.91 pM; mean BL2 of the sample/mean BL2 of the secondary antibody control [6]: 196 ratio; mean BL2 of the sample/mean BL2 of the secondary antibody control (cynomolgus CD3): 33 ratio; mean BL2 of the sample/mean BL2 of the secondary antibody control [14]: 1 ratio; mean BL2 of the sample/mean BL2 of the secondary antibody control (human CCR8 [15]): 30 ratio; mean BL2 of the sample/mean BL2 of the secondary antibody control (human CCR8 [18]): 42 ratio; binding result [20]: no binding (tested: 5 µg/mL)
B2	1550	0.64	25.1	3510	1	432	1.1	1	814	2420	22000	552000	32.4	342	290	712000	Median Fluorescence of Sample/Median Fluorescence of Negative Control [22]: 1 ratio
